Measurements reported in publication PMC12820563.
This is one part of the list. The list includes weakly bound sequences.

target: T1, MBP-FoxP3dN (UniProt Q99JB6); experiment: PD-seq (MBP pull-down with sequencing); details: 20 mM Tris-HCl pH 7.5, 100 mM NaCl, 1.5 mM MgCl2, 0.4 uM protein, 0.1 uM dsDNA library, 30 min, room temperature, amylose pull-down; high values mean tight binding; double strand, one strand shown
T1 sequence: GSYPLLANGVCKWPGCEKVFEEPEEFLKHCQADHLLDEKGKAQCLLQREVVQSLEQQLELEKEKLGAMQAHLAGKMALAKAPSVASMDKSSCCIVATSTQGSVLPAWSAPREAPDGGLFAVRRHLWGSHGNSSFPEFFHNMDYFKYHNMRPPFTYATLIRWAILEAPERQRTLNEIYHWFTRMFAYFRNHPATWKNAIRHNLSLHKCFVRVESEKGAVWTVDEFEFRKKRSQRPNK

Sequence | binding signal (RPM ratio (pull-down/input))
GATGATTGTTCTCCCAGCTGATGAATTCTGCTTCTCGAGTAAACAAATTTTCCTAATCTTTCTGTTCAAGCGCCATCTAC | 2.01
GATGATTGTTCTCCCAGCTGATGAATTGAGGTATTCGAGTAAACAAATTTTCCTAATCTTTCTGTTCAAGCGCCATCTAC | 0.974
GATGATTGTTCTCCCAGCTGATGAATTTTATACTTCGAGTAAACAAATTTTCCTAATCTTTCTGTTCAAGCGCCATCTAC | 0.464
GATGATTGTTCTCCCAGCTGATGAATTAAATAGCTCGAGTAAACAAATTTTCCTAATCTTTCTGTTCAAGCGCCATCTAC | 0.406
GATGATTGTTCTCCCAGCTGATGAATTCCGCCCGTCGAGTAAACAAATTTTCCTAATCTTTCTGTTCAAGCGCCATCTAC | 2.48
GATGATTGTTCTCCCAGCTGATGAATTACTTACTTCGAGTAAACAAATTTTCCTAATCTTTCTGTTCAAGCGCCATCTAC | 0.438
GATGATTGTTCTCCCAGCTGATGAATTTACCCCTTCGAGTAAACAAATTTTCCTAATCTTTCTGTTCAAGCGCCATCTAC | 0.387
GATGATTGTTCTCCCAGCTGATGAATTAATACAATCGAGTAAACAAATTTTCCTAATCTTTCTGTTCAAGCGCCATCTAC | 0.959
GATGATTGTTCTCCCAGCTGATGAATTTTAGTCCTCGAGTAAACAAATTTTCCTAATCTTTCTGTTCAAGCGCCATCTAC | 0.354
GATGATTGTTCTCCCAGCTGATGAATTGCGAAATTCGAGTAAACAAATTTTCCTAATCTTTCTGTTCAAGCGCCATCTAC | 0.938
GATGATTGTTCTCCCAGCTGATGAATTGCGTTGGTCGAGTAAACAAATTTTCCTAATCTTTCTGTTCAAGCGCCATCTAC | 1.74
GATGATTGTTCTCCCAGCTGATGAATTGCTTCAATCGAGTAAACAAATTTTCCTAATCTTTCTGTTCAAGCGCCATCTAC | 0.425
GATGATTGTTCTCCCAGCTGATGAATTATAGACGTCGAGTAAACAAATTTTCCTAATCTTTCTGTTCAAGCGCCATCTAC | 0.36
GATGATTGTTCTCCCAGCTGATGAATTATCAAAATCGAGTAAACAAATTTTCCTAATCTTTCTGTTCAAGCGCCATCTAC | 0.251
GATGATTGTTCTCCCAGCTGATGAATTGTTAGCATCGAGTAAACAAATTTTCCTAATCTTTCTGTTCAAGCGCCATCTAC | 2.56
GATGATTGTTCTCCCAGCTGATGAATTTGCAGGCTCGAGTAAACAAATTTTCCTAATCTTTCTGTTCAAGCGCCATCTAC | 0.639

Sequence | binding signal (RPM ratio (pull-down/input))
GATGATTGTTCTCCCAGCTGATGAATTAGAATGGTCGAGTAAACAAATTTTCCTAATCTTTCTGTTCAAGCGCCATCTAC | 0.389
GATGATTGTTCTCCCAGCTGATGAATTGACGTAATCGAGTAAACAAATTTTCCTAATCTTTCTGTTCAAGCGCCATCTAC | 0.865
GATGATTGTTCTCCCAGCTGATGAATTGGCAAGATCGAGTAAACAAATTTTCCTAATCTTTCTGTTCAAGCGCCATCTAC | 0.286
GATGATTGTTCTCCCAGCTGATGAATTGGCGTGGTCGAGTAAACAAATTTTCCTAATCTTTCTGTTCAAGCGCCATCTAC | 1.22
GATGATTGTTCTCCCAGCTGATGAATTACGGTAATCGAGTAAACAAATTTTCCTAATCTTTCTGTTCAAGCGCCATCTAC | 0.556
GATGATTGTTCTCCCAGCTGATGAATTCCGTTAGTCGAGTAAACAAATTTTCCTAATCTTTCTGTTCAAGCGCCATCTAC | 1.22
GATGATTGTTCTCCCAGCTGATGAATTCGCAAAGTCGAGTAAACAAATTTTCCTAATCTTTCTGTTCAAGCGCCATCTAC | 0.253
GATGATTGTTCTCCCAGCTGATGAATTCCCACCATCGAGTAAACAAATTTTCCTAATCTTTCTGTTCAAGCGCCATCTAC | 0.298
GATGATTGTTCTCCCAGCTGATGAATTGCGGTAATCGAGTAAACAAATTTTCCTAATCTTTCTGTTCAAGCGCCATCTAC | 0.909
GATGATTGTTCTCCCAGCTGATGAATTGAGCTAGTCGAGTAAACAAATTTTCCTAATCTTTCTGTTCAAGCGCCATCTAC | 0.815
GATGATTGTTCTCCCAGCTGATGAATTCACCTTGTCGAGTAAACAAATTTTCCTAATCTTTCTGTTCAAGCGCCATCTAC | 0.341
GATGATTGTTCTCCCAGCTGATGAATTTGAGATATCGAGTAAACAAATTTTCCTAATCTTTCTGTTCAAGCGCCATCTAC | 0.422
GATGATTGTTCTCCCAGCTGATGAATTTATTTCTTCGAGTAAACAAATTTTCCTAATCTTTCTGTTCAAGCGCCATCTAC | 3.01
GATGATTGTTCTCCCAGCTGATGAATTCTAAATGTCGAGTAAACAAATTTTCCTAATCTTTCTGTTCAAGCGCCATCTAC | 0.367
GATGATTGTTCTCCCAGCTGATGAATTGTTTTCGTCGAGTAAACAAATTTTCCTAATCTTTCTGTTCAAGCGCCATCTAC | 3.95
GATGATTGTTCTCCCAGCTGATGAATTTGAAGGTTCGAGTAAACAAATTTTCCTAATCTTTCTGTTCAAGCGCCATCTAC | 0.401
